About 6,900 (2%) of roughly 340,000 compounds were called active. No stated cut-off is given here; in the data, active means inhibition above about 30%; inactive means below that, where a call was filed. This is a selection; strong and weak results do not stand in their true shares. Entries without a call were filed so in the source.
Each compound was assayed against D(2) dopamine receptor (Homo sapiens) (UniProt P14416) (assay: HTS Assay for Allosteric Antagonists of the Human D2 Dopamine Receptor: Primary Screen for Antagonists). Conditions: HEK293 TREx D2 cells, calcium flux, dopamine EC80; at 10 µM; stronger effect = higher value.
Chain of UniProt P14416 (P14416 whole entry, looked up): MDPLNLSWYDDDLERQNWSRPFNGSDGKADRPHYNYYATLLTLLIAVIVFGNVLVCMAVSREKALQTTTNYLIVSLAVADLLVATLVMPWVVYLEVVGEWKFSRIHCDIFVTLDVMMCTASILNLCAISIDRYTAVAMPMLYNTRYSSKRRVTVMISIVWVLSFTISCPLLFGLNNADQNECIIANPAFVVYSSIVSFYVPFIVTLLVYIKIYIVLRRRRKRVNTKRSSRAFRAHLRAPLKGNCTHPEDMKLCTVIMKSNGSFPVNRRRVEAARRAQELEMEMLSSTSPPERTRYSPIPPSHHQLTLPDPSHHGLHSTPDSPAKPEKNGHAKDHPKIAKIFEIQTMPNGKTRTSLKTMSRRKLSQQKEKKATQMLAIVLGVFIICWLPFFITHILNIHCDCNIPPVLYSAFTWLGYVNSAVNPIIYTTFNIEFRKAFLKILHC
Summary of the method: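 Tetracycline-induced HEK293 T-REx cells expressing D2 force-coupled to calcium signalling were dye-loaded, exposed to compound for 180 s, then challenged with an EC80 of dopamine; calcium flux was followed kinetically for a further 180 s.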
Further: 0% is about no effect.

Question: `N#Cc1c(F)cccc1N1CCN(Cc2ccc3c(c2)OCO3)CC1` was tested. Which inhibition did it give?
Answer: active: 85.4%

Question: How did the inhibition turn out when `Cc1ccc(-n2ncc3c(N4CCC(Cc5ccccc5)CC4)ncnc32)cc1C` was run?
Answer: 18.5%

Question: With `Cc1ccc(OC(=O)CSc2nnc(-c3ccc4c(c3)OCO4)o2)cc1` as the compound, how does the inhibition read?
Answer: -5.07%

Question: `COc1ccc(-n2c(Cc3cc(=O)[nH]c(=O)[nH]3)nnc2SCC(=O)Nc2cc(C(F)(F)F)ccc2Cl)cc1` was tested. Which inhibition did it give?
Answer: active: 40.8%

Question: `COc1ccc(N2CCN(C(=O)C3CCN(S(=O)(=O)c4cn(C)cn4)CC3)CC2)cc1` was tested. Which inhibition did it give?
Answer: 15.1%

Question: With `Cc1cccc(NC(=O)CCNS(=O)(=O)c2ccc3c(c2)CCN3C(=O)C2CC2)c1` as the compound, how does the inhibition read?
Answer: 8.86%

Question: `Cc1ccc(NC(=O)Cn2cc(C(=O)C3CCCCC3)c3ccccc32)cc1` was tested. Which inhibition did it give?
Answer: -13.1%

Question: How did the inhibition turn out when `CCOc1ccc(-c2cc(CCCC(=O)NCCc3cc(OC)c(OC)c(OC)c3)no2)cc1` was run?
Answer: 1.02%

Question: With `CCOC(=O)C1CCN(C(c2ccc(C)cc2)c2c(O)cc(C)n(CCOC)c2=O)CC1` (stereo not drawn) as the compound, how does the inhibition read?
Answer: -9.31%

Question: With `CCOc1ccc(NC(=O)Cn2c(=O)n(CCCS(=O)(=O)C3CCCCC3)c(=O)c3ccccc32)cc1` as the compound, how does the inhibition read?
Answer: -3.25%

Question: `COc1ccc(CCNC(=O)CCCn2nc(C)c3sc4ccccc4c3c2=O)c(OC)c1` was tested. Which inhibition did it give?
Answer: 10.7%

Question: Which inhibition does the source give for `Cc1ccccc1NC(=O)CSc1nc(-c2ccco2)nc2cc(=O)[nH]n12` here?
Answer: -7.16%

Question: With `Cc1ccc(NC(=O)C2CCN(c3nc(-c4ccc(C(C)C)cc4)no3)CC2)c(Cl)c1` as the compound, how does the inhibition read?
Answer: -23.4%

Question: Which inhibition does the source give for `Cc1ccc(C(=O)Oc2cc(-c3ccc4c(c3)OCO4)cc(=O)c3c(C)oc(C)c23)cc1` here?
Answer: 12.1%

Question: How did the inhibition turn out when `Cc1ccc(C(=O)NC2(C(F)(F)F)N=C(c3ccccc3)N(Cc3ccccc3)C2=O)cc1` (stereo not drawn) was run?
Answer: -6.62%

Question: Which inhibition does the source give for `CC(=O)c1ccc(NS(=O)(=O)c2ccc(-n3cccn3)cc2)cc1` here?
Answer: 3.97%

Question: How did the inhibition turn out when `Cc1ccc2c(CNCc3ccc(C)o3)c(C(=O)O)n(Cc3ccc(F)cc3)c2c1` was run?
Answer: 1.03%

Question: With `CCOc1ccc(CNC(=O)c2cc(-c3ccc(Cl)s3)nc3ccccc23)cc1` as the compound, how does the inhibition read?
Answer: 12.3%

Question: Which inhibition does the source give for `COc1ccc(C(=O)Oc2c(Sc3ccc(C)cc3)c(C)nn2C(C)(C)C)cc1OC` here?
Answer: 12.9%

Question: How did the inhibition turn out when `COc1ccccc1NC(=O)Cn1c(=O)n(CC(=O)NCc2ccccc2Cl)c(=O)c2sccc21` was run?
Answer: 2.63%

Question: `O=C(c1ccc2c(c1)N(Cc1ccc(Cl)cc1)C(=O)c1ccccc1S2=O)N1CCCCC1` (stereo not drawn) was tested. Which inhibition did it give?
Answer: 0.0264%

Question: For `CC1(c2ccc(Cl)cc2)CC(C)(C)N(C(=O)c2cccc(F)c2)c2ccccc21` (stereo not drawn), which inhibition is on record?
Answer: -2.66%

Question: `COCCCn1c(-c2ccc(S(=O)(=O)N3CCOCC3)cc2)csc1=Nc1ccccc1` was tested. Which inhibition did it give?
Answer: -2.83%

Question: With `O=C(NCCN1CCCCC1)c1ccc(Cn2c(SCc3ccccc3)nc3cccnc32)cc1` as the compound, how does the inhibition read?
Answer: 8.65%

Question: How did the inhibition turn out when `COc1ccc(CNC(=O)c2cc3sccc3n2Cc2ccc(C)cc2)cc1` was run?
Answer: -13.9%

Question: With `CN(CC1CCN(CCc2cccc(C(F)(F)F)c2)CC1)C(=O)c1ccc(F)cc1F` as the compound, how does the inhibition read?
Answer: active: 64.5%

Question: For `O=C(Cc1ccccc1)Nc1sc2c(c1C(=O)Nc1ccc(Br)cc1)CCCC2`, which inhibition is on record?
Answer: -12.8%

Question: For `Cc1ccc(Cn2ccnc2SCC(=O)Nc2nnc(C)s2)cc1`, which inhibition is on record?
Answer: -11.6%

Question: With `COc1ccc(OC)c(NC(=O)Nc2c(C)n(C)n(-c3ccccc3)c2=O)c1` as the compound, how does the inhibition read?
Answer: 11.7%

Question: Which inhibition does the source give for `O=C(O)c1ccc(-c2ccc(/C=c3/sc4nc5ccccc5n4c3=O)o2)cc1Cl` here?
Answer: active: 34.3%

Question: For `Cc1ccc(-c2csc(=Nc3ccccc3)n2Cc2ccc3c(c2)OCO3)cc1`, which inhibition is on record?
Answer: 4.81%

Question: `O=C(NC1CCN(Cc2ccccc2)CC1)c1ccc(Cn2c(=O)c3ccccc3n(Cc3ccc(F)cc3)c2=O)cc1` was tested. Which inhibition did it give?
Answer: 8.28%

Question: With `Cc1cc(C)cc(Oc2nc3ccccn3c(=O)c2/C=C(\C#N)c2nc3ccccc3s2)c1` as the compound, how does the inhibition read?
Answer: 6.03%

Question: Which inhibition does the source give for `COCCCNC(=O)CSc1nc2cc3c(cc2c(=O)n1CCCC(=O)NCc1ccc2c(c1)OCO2)OCO3` here?
Answer: -16.2%

Question: With `Cc1ccccc1OCCSc1nc2ccc(NC(=O)c3cccs3)cc2s1` as the compound, how does the inhibition read?
Answer: 19.1%

Question: `Cn1c(=O)cc(SCC(=O)N2CCN(c3ccccc3F)CC2)c2ccc(Cl)cc21` was tested. Which inhibition did it give?
Answer: -9.59%

Question: `COc1ccccc1NC(=O)c1cc2c(C)nn(-c3ccccc3)c2s1` was tested. Which inhibition did it give?
Answer: 22.5%

Question: `Cc1ccc(C(=O)Nc2c(C)cc(-c3ccccc3)oc2=O)cc1` was tested. Which inhibition did it give?
Answer: active: 30.9%

Question: How did the inhibition turn out when `COc1ccc(N2CCN(C(=O)COCc3cc(-c4ccc5c(c4)OCO5)on3)CC2)cc1` was run?
Answer: 1.37%

Question: Which inhibition does the source give for `COc1ccc(NC(=O)c2sc3nc(C(F)(F)F)cc(C)c3c2N)cc1OC` here?
Answer: 20.1%

Question: Which inhibition does the source give for `Cc1ccc(NC(=O)c2nc(S(C)(=O)=O)ncc2N(Cc2ccco2)Cc2cccs2)cc1C` here?
Answer: 4.83%

Question: Which inhibition does the source give for `O=C1CC(=C2c3ccccc3-c3ccccc32)C(=O)N1CCCCN1CCN(c2ccccc2)CC1` here?
Answer: active: 43.9%

Question: For `CCN(CC)S(=O)(=O)c1ccc2c(c1)nc(CN(C)C(=O)Nc1ccc(C)c(F)c1)n2C`, which inhibition is on record?
Answer: 2.06%

Question: For `CCc1ccccc1NC(=O)CN1C(=O)CCSc2ccc(S(=O)(=O)N3CCCC3)cc21`, which inhibition is on record?
Answer: -4.49%

Question: How did the inhibition turn out when `O=C(OCC1CCCO1)c1ccc2c(c1)N(Cc1ccccc1)C(=O)c1ccccc1S2(=O)=O` (stereo not drawn) was run?
Answer: -1.53%

Question: Which inhibition does the source give for `CCOC(=O)NN1C(=O)c2ccccc2NC1c1ccccn1` (stereo not drawn) here?
Answer: active: 37.7%

Question: `CCc1ccccc1NC(=O)C(C)n1c(=O)cc(C)c2c(C)nn(-c3ccccc3)c21` (stereo not drawn) was tested. Which inhibition did it give?
Answer: -20%

Question: With `COC(=O)c1ccc(CSc2nc3c([nH]c4ccccc43)c(=O)n2-c2cccc(Cl)c2)o1` as the compound, how does the inhibition read?
Answer: -23.2%

Question: For `CCOC(=O)C1CCCN(C(=O)Cn2ncc3c4ccccc4n(Cc4ccccc4)c3c2=O)C1` (stereo not drawn), which inhibition is on record?
Answer: 5.61%

Question: With `O=C(Nc1ccc(F)cc1)C1CCN(S(=O)(=O)c2ccc3c(c2)CCCN3C(=O)C2CCC2)CC1` as the compound, how does the inhibition read?
Answer: -6.11%

Question: With `COc1ccc(N2CCN(CCCNC(=O)c3cc4sccc4n3C)CC2)cc1` as the compound, how does the inhibition read?
Answer: active: 40.3%

Question: For `CCOC(=O)c1cc(-c2ccc(OC)cc2)n(CCC(=O)NC2CCCCC2)c1C`, which inhibition is on record?
Answer: -1.05%

Question: Which inhibition does the source give for `CCOC(=O)c1c(S(=O)(=O)N2CCC(C(=O)Nc3ncccc3C)CC2)c(C)n(C)c1C` here?
Answer: -1.46%

Question: With `COc1ccc2c(CNC3CCCCCC3)c(C(=O)O)n(Cc3ccccc3F)c2c1` as the compound, how does the inhibition read?
Answer: -15.1%

Question: How did the inhibition turn out when `Cc1c(C(=O)OC2CCCCC2)[nH]c2c1C(=O)CC(c1ccc(C(C)(C)C)cc1)C2` (stereo not drawn) was run?
Answer: 11.9%

Question: `CCC(=O)N1CCc2cc(Br)cc(S(=O)(=O)CCC(=O)N3CCN(c4cc(C)ccc4C)CC3)c21` was tested. Which inhibition did it give?
Answer: 3.34%

Question: How did the inhibition turn out when `CCOC(=O)c1cnc2ccc(C)cc2c1Nc1ccc(N(CC)CC)cc1` was run?
Answer: -3.17%

Question: With `Fc1ccc(Nc2ncnc3c2nc2n3CCCCC2)c(F)c1` as the compound, how does the inhibition read?
Answer: 5.34%
